In the antibiotic and cytotoxicity screens of Wong et al. (2023):
The list shows a part of the results.

Key:
HSkMC = human skeletal muscle cells; experiment: cytotoxicity call (relative viability < 0.9); details: 10 µM
HepG2 = experiment: cytotoxicity call (relative viability < 0.9); details: 10 µM
S. aureus RN4220 = experiment: growth inhibition call (relative growth <= 0.2); details: 50 µM

C[C@H]1CN([C@@H](C)CO)S(=O)(=O)c2ccc(-c3ccc(F)cc3)cc2O[C@@H]1CN(C)C(=O)C1CCOCC1
cytotoxicity call (HSkMC): inactive
cytotoxicity call (HepG2): inactive
growth inhibition call (S. aureus RN4220): inactive

CC(C)(C)OC(=O)C[C@H]1CC=CC[C@@H](CC(=O)N[C@H](CO)Cc2ccccc2)C(=O)N[C@@H](C(C)(C)C)COC1=O
cytotoxicity call (HSkMC): inactive
cytotoxicity call (HepG2): inactive
growth inhibition call (S. aureus RN4220): inactive

COCC(=O)N1C[C@H](C)[C@@H](OC)CN(C)C(=O)c2ccc(NC(=O)c3ccc(OC)cc3)cc2OC[C@@H]1C
cytotoxicity call (HSkMC): inactive
cytotoxicity call (HepG2): inactive
growth inhibition call (S. aureus RN4220): inactive

Cc1ccnc(NC(=O)Cn2cnc3c2c(=O)n(C)c(=O)n3C)c1
cytotoxicity call (HSkMC): inactive
cytotoxicity call (HepG2): inactive
growth inhibition call (S. aureus RN4220): inactive

C[C@H](CO)N1C[C@H](C)[C@@H](CN(C)S(=O)(=O)c2cn(C)cn2)Oc2ccc(NS(=O)(=O)c3ccc(F)cc3)cc2CC1=O
cytotoxicity call (HSkMC): inactive
cytotoxicity call (HepG2): inactive
growth inhibition call (S. aureus RN4220): inactive

COCC#Cc1ccc2c(c1)O[C@H](CN(C)C(=O)C1CCOCC1)[C@@H](C)CN([C@H](C)CO)S2(=O)=O
cytotoxicity call (HSkMC): inactive
cytotoxicity call (HepG2): inactive
growth inhibition call (S. aureus RN4220): inactive

Cc1ccc(S(=O)(=O)Nc2ccc3c(c2)C(=O)N([C@H](C)CO)C[C@@H](C)[C@@H](CN(C)C(=O)NC2CCCCC2)OCCCC[C@@H](C)O3)cc1
cytotoxicity call (HSkMC): inactive
cytotoxicity call (HepG2): inactive
growth inhibition call (S. aureus RN4220): inactive

C[C@@H]1CCCCO[C@@H](CN(C)S(=O)(=O)c2ccc(Cl)cc2)[C@H](C)CN([C@H](C)CO)C(=O)c2cc(NS(=O)(=O)c3ccccc3)ccc2O1
cytotoxicity call (HSkMC): inactive
cytotoxicity call (HepG2): active
growth inhibition call (S. aureus RN4220): inactive

C[C@H]1CN([C@@H](C)CO)C(=O)c2cc(-c3ccc(C(=O)N(C)C)cc3)cnc2O[C@@H]1CN(C)C(=O)c1cccnc1
cytotoxicity call (HSkMC): inactive
cytotoxicity call (HepG2): inactive
growth inhibition call (S. aureus RN4220): inactive

C[C@@H]1CN([C@@H](C)CO)C(=O)Cc2cc(NS(=O)(=O)c3cn(C)cn3)ccc2O[C@H]1CN(C)C(=O)Nc1ccccc1
cytotoxicity call (HSkMC): inactive
cytotoxicity call (HepG2): inactive
growth inhibition call (S. aureus RN4220): inactive

CCc1nc2ccc(C(=O)Nc3cc(-c4ccccc4)ccc3OC)cn2c1N(C)Cc1ccc(OC)cc1
cytotoxicity call (HSkMC): inactive
cytotoxicity call (HepG2): inactive
growth inhibition call (S. aureus RN4220): inactive

O=C(C[C@H]1CC[C@H](NC(=O)CN2CCOCC2)[C@@H](CO)O1)NC1CCC1
cytotoxicity call (HSkMC): inactive
cytotoxicity call (HepG2): inactive
growth inhibition call (S. aureus RN4220): inactive

Cc1ccc(S(=O)(=O)Nc2ccc3c(c2)CC(=O)N([C@@H](C)CO)C[C@H](C)[C@H](CN(C)Cc2ccc(Oc4ccccc4)cc2)O3)cc1
cytotoxicity call (HSkMC): active
cytotoxicity call (HepG2): inactive
growth inhibition call (S. aureus RN4220): inactive

COCC#Cc1ccc2c(c1)O[C@H](CN(C)S(=O)(=O)c1cccc(OC)c1)[C@@H](C)CN([C@@H](C)CO)S2(=O)=O
cytotoxicity call (HSkMC): inactive
cytotoxicity call (HepG2): inactive
growth inhibition call (S. aureus RN4220): inactive

CS(=O)(=O)N1CCn2cc(Cn3cccn3)nc2C1
cytotoxicity call (HSkMC): inactive
cytotoxicity call (HepG2): inactive
growth inhibition call (S. aureus RN4220): inactive

C[C@H](CO)N1C[C@H](C)[C@H](CN(C)C(=O)c2ccc3c(c2)OCO3)Oc2cc(-c3cncnc3)ccc2S1(=O)=O
cytotoxicity call (HSkMC): inactive
cytotoxicity call (HepG2): inactive
growth inhibition call (S. aureus RN4220): inactive

C[C@@H]1CN([C@@H](C)CO)C(=O)c2cccc(NC(=O)c3cnccn3)c2O[C@H]1CN(C)S(=O)(=O)c1ccc(F)cc1
cytotoxicity call (HSkMC): inactive
cytotoxicity call (HepG2): inactive
growth inhibition call (S. aureus RN4220): inactive

Cc1nc(C)c(Cl)c(O)c1Cl
cytotoxicity call (HSkMC): inactive
cytotoxicity call (HepG2): inactive
growth inhibition call (S. aureus RN4220): inactive

C[C@H]1CN([C@@H](C)CO)C(=O)c2cc(NC(=O)Nc3cccc4ccccc34)ccc2O[C@H]1CN(C)CC1CCCCC1
cytotoxicity call (HSkMC): inactive
cytotoxicity call (HepG2): active
growth inhibition call (S. aureus RN4220): inactive

COCCNC(=O)C[C@@H]1CC[C@H]2[C@H](COc3ccc(NS(=O)(=O)c4ccc(Cl)cc4)cc3C(=O)N2C)O1
cytotoxicity call (HSkMC): inactive
cytotoxicity call (HepG2): inactive
growth inhibition call (S. aureus RN4220): inactive

C[C@@H]1CN([C@@H](C)CO)C(=O)Cc2cc(NC(=O)Nc3ccccc3)ccc2O[C@H]1CN(C)Cc1ccc(C(F)(F)F)cc1
cytotoxicity call (HSkMC): active
cytotoxicity call (HepG2): active
growth inhibition call (S. aureus RN4220): inactive

CN(C)CC(=O)N[C@H]1CC[C@@H](CC(=O)NCCN2CCCCC2)O[C@@H]1CO
cytotoxicity call (HSkMC): inactive
cytotoxicity call (HepG2): inactive
growth inhibition call (S. aureus RN4220): inactive

C[C@@H]1CN([C@@H](C)CO)C(=O)c2cc(NS(=O)(=O)c3cccs3)ccc2O[C@@H](C)CCCCO[C@H]1CN(C)CC1CCCCC1
cytotoxicity call (HSkMC): inactive
cytotoxicity call (HepG2): inactive
growth inhibition call (S. aureus RN4220): inactive

O=C(CN1CCOCC1)N[C@@H]1CC[C@@H](CCNC(=O)C2CCCCC2)O[C@H]1CO
cytotoxicity call (HSkMC): inactive
cytotoxicity call (HepG2): inactive
growth inhibition call (S. aureus RN4220): inactive

Cc1noc(C)c1NC(=O)N(C)C[C@@H]1Oc2ncc(C#Cc3ccccc3)cc2C(=O)N([C@H](C)CO)C[C@@H]1C
cytotoxicity call (HSkMC): inactive
cytotoxicity call (HepG2): inactive
growth inhibition call (S. aureus RN4220): inactive

C[C@@H]1CN([C@H](C)CO)C(=O)c2cc(NC(=O)Nc3ccc4c(c3)OCO4)ccc2O[C@@H](C)CCCCO[C@@H]1CN(C)S(=O)(=O)c1ccccc1
cytotoxicity call (HSkMC): inactive
cytotoxicity call (HepG2): inactive
growth inhibition call (S. aureus RN4220): inactive

CNC[C@H]1Oc2ccc(NS(=O)(=O)c3cn(C)cn3)cc2CC(=O)N([C@H](C)CO)C[C@H]1C
cytotoxicity call (HSkMC): inactive
cytotoxicity call (HepG2): inactive
growth inhibition call (S. aureus RN4220): inactive

Cc1noc(C)c1S(=O)(=O)Nc1ccc2c(c1)C(=O)N([C@@H](C)CO)C[C@H](C)[C@@H](CN(C)S(=O)(=O)c1cn(C)cn1)OCCCC[C@@H](C)O2
cytotoxicity call (HSkMC): inactive
cytotoxicity call (HepG2): inactive
growth inhibition call (S. aureus RN4220): inactive
